Reference: PubChem BioAssay AID1865 (National Center for Advancing Translational Sciences (NCATS), 2009)
Screen size: about 280,000 compounds; about 540 (0.19%) were called active. Inconclusive results (about 2%) are left out. Calls follow the shape of the dose curve; as a rule, active = well fitted activation curve with a large enough effect; inconclusive = small, poorly fitted or top-dose-only effect; inactive = flat fitted curve, though single readings scatter. The list shows a part of the results, in another mix than the full data.

Test: Quantitative High-Throughput Screen for Regulators of Epigenetic Control; also: nearly all actives have a fitted effect of over 60% in size; as to GFP activation: % of control where 0% means no effect
Conditions: murine LDR cells, GFP reporter derepression, 30 h; series mostly up to 53.9 µM; GFP activation: at the top concentration
Outline: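 Murine LDR cells bearing a silenced CMV-driven GFP reporter were exposed to compound for 30 h at 37 C. After PBS washes, GFP-positive cells (20-120 um objects) counted by laser-scanning microplate cytometry.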
Potency is read from the fitted curve at half-maximal effect.

| Compound | GFP activation | Potency |
| --- | --- | --- |
| COc1ccc(OC)c(NS(=O)(=O)c2ccc(Br)s2)c1 | inactive: 1.77% |  |
| O=C(NCCC1=CCCCC1)C1CCN(C(=O)Nc2ccccc2)CC1 | inactive: -14.3% |  |
| CCO/C=C1\C(=O)N(CC)c2ccccc21 | inactive: -1.04% |  |
| O=C(NCC(=O)N1CCCC1C(=O)O)OC1CCCCC1 (stereo unspecified) | inactive: 1.28% |  |
| O=S(=O)(c1cccc2nsnc12)N1CCN(C/C=C/c2ccccc2)CC1 | inactive: -0.223% |  |
| CCCCn1c(SCC(=O)Nc2ccc(OC)cc2)nc2ccc(N3CCOCC3)cc2c1=O | inactive: -12.7% |  |
| CCOC(=O)N1CCC(NC(=O)CCC(=O)N2CC(C)Oc3ccc(Cl)cc32)CC1 (stereo unspecified) | inactive: -12.7% |  |
| CCCn1c(C(C)NC(C)=O)nc2ccccc21 (stereo unspecified) | inactive: 0% |  |
| O=S(=O)(NCC(Nc1ccc(Cl)cc1)c1ccccc1)c1ccccc1 (stereo unspecified) | inactive: -0.943% |  |
| O=C1C=C(Nc2ccc(Cl)cc2)C(=O)N1c1ccc(Cl)cc1 |  | active: 10 µM |
| C=CCn1c(O)c(N=NC(=O)CNC(=O)/C=C/c2ccco2)c2ccccc21 | inactive: 0% |  |
| N=C(N)S/C=C\C(=O)O | inactive: 8.42% |  |
| CCOC(=O)c1nn(-c2ccc(Cl)cc2Cl)c(=N)c(C#N)c1C |  | active: 11.2 µM |
| OC[C@H]1O[C@@H](n2cnc3c(NCc4ccco4)ncnc32)[C@H](O)[C@@H]1O |  | inactive |
| CCC(=NCc1ccccc1)C1=C(O)C(C(=O)OC)C(C)(C)CC1=O (stereo unspecified) | inactive: -11.9% |  |
| COc1ccccc1OC(C)C(=O)Nc1ccc(-c2nc3ccccc3s2)cc1 (stereo unspecified) |  | active: 35.5 µM |
| CCc1ccc(NC(=O)CSc2nnc(CC)c(CC)n2)cc1 | inactive: -3.39% |  |
| Cc1nc(N)c(C#N)c(-c2ccccc2)c1C | inactive: -7.23% |  |
| CCC(C)NC(=O)c1c(N)n(/N=C/c2ccccn2)c2nc3ccccc3nc12 (stereo unspecified) | inactive: -0.243% |  |

| Compound | GFP activation | Potency |
| --- | --- | --- |
| Cc1onc(-c2ccccc2)c1C(=O)N1CCOCC1 | inactive: -0.877% |  |
| CSc1ccccc1NC(=O)CN(c1ccccc1)S(=O)(=O)N(C)C | inactive: 2.56% |  |
| CN1CCc2c(sc(NC(=O)CSc3ccc(F)cc3)c2-c2nc3ccccc3s2)C1 |  | active: 3.16 µM |
| O=C(CCN1C(=O)/C(=C/C=C/c2ccccc2)SC1=S)Nc1ccccn1 |  | active: 14.1 µM |
| CCC1=C2CC[C@H]3C(=O)N(c4ccccc4)C(=O)[C@H]3[C@H]2[C@@]2(C)C(=NCc3ccccc3)OC(=O)N2C1=O | inactive: 0.524% |  |
| CC(=O)[C@H](CC(C)C)NC(=O)[C@@H](CC(C)C)NC(=O)[C@H](CC(C)C)NC(=O)OCc1ccccc1 |  | active: 5.01 µM |
| Cc1occc1C(=O)N/N=C/C(Br)=C\c1ccccc1 | inactive: 4.11% |  |
| CCCCCCCCCCCCCCC[C@H](O)[C@@H](N)CO |  | inactive |
| COC1/C=C/OC2(C)Oc3c(C)c(O)c4c(O)c(c(/C=N/N5CCN(C)CC5)c(O)c4c3C2=O)NC(=O)/C(C)=C/C=C/C(C)C(O)C(C)C(O)C(C)C(OC(C)=O)C1C (stereo unspecified) | inactive: 3.12% |  |
| CC(=O)CC1OC(=O)C(Br)=C1NCc1ccccc1 (stereo unspecified) |  | active: 7.94 µM |
| CCOC(=O)C(C)Sc1nc2c(c(=O)[nH]c(=O)n2C)n1Cc1ccc(Cl)cc1 (stereo unspecified) | inactive: 0% |  |
| Cc1cc(=O)oc2c1c(C)nn2-c1ccc(C(=O)OC(C)C)cc1 | inactive: 0% |  |
| CC(=O)Nc1ccc(NS(=O)(=O)c2cn(C)c(=O)n(C)c2=O)cc1 | inactive: 0.901% |  |
| Cc1ccc2nc(-c3ccccn3)cc(C(=O)Nc3ccc4c(c3)OCO4)c2c1 |  | active: 15.8 µM |
| C/C=C(/C)C(=O)OC1Cc2c(ccc3ccc(=O)oc23)OC1(C)C (stereo unspecified) | inactive: 1.49% |  |
| CCN(CC)c1ccc2cc(-c3nc(-c4ccccc4)no3)c(=O)oc2c1 |  | active: 14.1 µM |
| CN(CC(=O)NC1CCCCC1)S(=O)(=O)c1ccc(Cl)cc1 | inactive: 0% |  |
| Cn1cc(C(=O)N/N=C/C(Br)=C\c2ccccc2)ccc1=O | inactive: 6.76% |  |
| O=C(Nc1nc(-c2cccs2)cs1)c1ccc(S(=O)(=O)N2CCCCC2)cc1 | inactive: 0% |  |

| Compound | GFP activation | Potency |
| --- | --- | --- |
| Cc1ccc(C(C)C)c(OCc2nnc(SCC(=O)Nc3ncc(C)s3)n2C)c1 | inactive: 0% |  |
| CCOc1cc(/C=C2/C(=O)ON=C2C)ccc1OCc1ccccc1 | inactive: -0.0837% |  |
| CCCCCCCCCCCCCCC[C@H](O)[C@H](N)CO | inactive: -0.144% |  |
| Oc1c(I)cc(Cl)c2cccnc12 | inactive: -1.37% [at 16.9 µM] |  |
| Nc1c(C(=O)Nc2ccc(S(=O)(=O)N3CCCC3)cc2)sc2nc3cc4c(cc3cc12)CCC4 |  | active: 3.55 µM |
| CCC(C)NC(=O)CSc1nc2cc3c(cc2c(=O)n1Cc1ccc(C(=O)NCCc2ccc(OC)c(OC)c2)cc1)OCO3 (stereo unspecified) |  | active: 11.2 µM |
| CCOC(=O)CN1C(=O)N[C@@H](c2ccccc2)C(C(C)=O)=C1C | inactive: -1.14% |  |
| O=C(C1=C[C@H](c2coc3ccccc3c2=O)C[C@H](OCCCCO)O1)N1CCOCC1 | inactive: -0.819% |  |
| O=C(c1ccc2nc(N3CCCCC3)sc2c1)N1CCN(c2ccccn2)CC1 | inactive: 1.28% |  |
| Cn1cccc1/C=C1\CC(C(C)(C)C)C/C(=C\c2cccn2C)C1=O (stereo unspecified) |  | active: 2.82 µM |
| N#Cc1c(NC(=S)NC(=O)c2ccccc2)sc2c1CCN(CCc1ccccc1)C2 |  | active: 5.62 µM |
| O=C(Nc1ccccc1)c1cc([N+](=O)[O-])ccc1Cl |  | inactive |
| CSc1nsc(/C=C/Nc2ccc(F)cc2F)c1C#N |  | active: 3.98 µM |
| CC(=O)[C@@]1(O)CC[C@H]2[C@H]3C[C@@H](C)C4=CC(=O)C=C[C@]4(C)[C@@]3(F)[C@@H](O)C[C@]21C | inactive: 0% [at 16.9 µM] |  |
| CC(C)(C)CC(=O)N1CCC(c2nc3c(nnn3Cc3c(F)cccc3Cl)c(=O)[nH]2)CC1 | inactive: -8.16% |  |
| COC(=O)C1(C(=O)OC)C/C=C\Cc2ccccc2[C@@H]1C[N+](=O)[O-] |  | inactive |
| COc1cc2nc3c(c([Si](C)(C)C(C)(C)C)c2cc1OC)Cn1c-3cccc1=O |  | active: 7.94 µM |
| COc1cccc2c1C(=O)c1c(O)c3c(c(O)c1C2=O)C[C@@](O)(C(=O)CO)C[C@@H]3O[C@H]1C[C@H](N)[C@H](O)[C@H](C)O1 | inactive: -0.027% |  |
